Data published in publication PMC12136788.
The other results are listed elsewhere or left out.

T1: UNK ZnF1-3 (human, UniProt Q9C0B0 31-174)
T1 sequence: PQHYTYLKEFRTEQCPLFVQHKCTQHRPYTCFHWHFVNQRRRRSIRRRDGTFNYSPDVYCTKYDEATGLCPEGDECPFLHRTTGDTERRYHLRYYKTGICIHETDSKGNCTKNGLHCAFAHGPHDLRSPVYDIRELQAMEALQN

B1: 8395770_8396156_4501_CDS_ENSG00000133026_ENST00000269243|human|control|control (ssRNA)
RNA: GGGAGUUCUACAGUCCGACGAUCGGCCCGGUCCCGCUCUUCGGCAUAGCGAGCAGAGAUGCUCUUCUCUUCUGCUAACAGCUGGUCAAACUUCUUCUGCUUCUUCUCCAAGUUGGAGGCGACCUGGCGCUGGUGGUCCAGGUCCAACAGAGGAUUGAGCAUCA
B2: chr7:40027299:40027300:+_ENSG00000065883_ENST00000340829|hu_hu|motif|central (ssRNA)
RNA: GGGAGUUCUACAGUCCGACGAUCAUUCUUGUUCAAUUCAGCUGCCAGGCUACUCUUCAGAGUUAGUGUGCUAGGAGAAAUACGGGAAUGACGACUUCUGGAUCUAGACAAUCUGUGCCUGCUACGAGAUCUUGAAUGCCUAGACAACAGAGGAUUGAGCAUCA
B3: chr1:26449037:26449038:+_ENSG00000175087_ENST00000374271|hu_hu|FALSE|FALSE (ssRNA)
RNA: GGGAGUUCUACAGUCCGACGAUCAUUUGCAAAUAAUAUGUGUCACGUUUCCCAGCUGCUAUCUUUAAAUGCAAUUUGUACUAAUCUGAGUUCUAGUUCAAAAGCAUCUGGACGAUCCUGAGGGUUUGCAGCCAGCAUUUCCUUCAACAGAGGAUUGAGCAUCA
B4: chr20:57015987:57015988:+_ENSG00000124164_ENST00000520497|hu_mus|FALSE|FALSE (ssRNA)
RNA: GGGAGUUCUACAGUCCGACGAUCUUCCAUCACCUUCUUUACUUCUGUGUCAUCGAGGGGCGAUGUCAGGGACUUUGCGGCUGCCGGUGCUUCUGUCUUGGAUGCACUCGUAGGUAUGAUUUUAUUUAUUUCUACAUCAUGUGGCAACAGAGGAUUGAGCAUCA
B5: chr1:93299114:93299115:+_ENSG00000122406_ENST00000370321|hu_mus|FALSE|FALSE (ssRNA)
RNA: GGGAGUUCUACAGUCCGACGAUCCUGGAUCACCAAUCGUUUUCGAGCAUAGUAGUCAGUUUUACCCUCUCGCCGCCUUCGAAAUCUCACUUGGUAUCUUUUAAAGUAGGCCUUAUUCUUGACAACUUUCACAAACCCCAUCCUCAACAGAGGAUUGAGCAUCA
B6: chr12:42180722:42180723:-_ENSMUSG00000036295_ENSMUST00000043884|mus_hu|mus_mus_mus_hu_True|38_68 (ssRNA)
RNA: GGGAGUUCUACAGUCCGACGAUCCUGUAGGAGAAGAAUCUGUGUGUUAGCUGGCAAUCUGGCUGGGAAGUUUAAAAGACCUAAAUCAUUACAAUCCACUGUCGAUGCUUCCAUAUAAAUGGAUCUGGGUGUAAACCAAGGCCUCAACAGAGGAUUGAGCAUCA
B7: chr17:17163782:17163783:-_ENSG00000141030_ENST00000268717|hu_hu|motif|central (ssRNA)
RNA: GGGAGUUCUACAGUCCGACGAUCGAGUUCUGAGGGGUUGUUGGUUGAAUACACUUGUGCUAACUCGUGGUAUGCAUUGCGGAGAGGCUUAAUGAAUCUACCCACAAUUUGAGAUGUAUAUUUUGGUAGCUGUUGUACUUUGCCCAACAGAGGAUUGAGCAUCA
B8: chr3:176740097:176740098:-_ENSG00000177565_ENST00000430069|hu_mus|hu_hu_hu_mus_True|1_78 (ssRNA)
RNA: GGGAGUUCUACAGUCCGACGAUCUGUUUUGUAUACCACAAAAGGAGGCACUUUCAGUAUCUGUAAAAGGUGUUUAGUCCUAAAACAUACUCACCUAGAGGAUAACUCAGGAAAACAAUCUGUUACACUCUAAGACCUUAGGAACAACAGAGGAUUGAGCAUCA
B9: chr4:57314706:57314707:+_ENSG00000128050_ENST00000264221|hu_mus|hu_hu_hu_mus_True|18_98 (ssRNA)
RNA: GGGAGUUCUACAGUCCGACGAUCCAGAAUUUCAAAAAUAGCCUGUGUGGCAUGACUCAUGAUGUCCACUUCAGUCUGCCCUAUAACAAGGCCAGCAAAACAGAAUUUUGCAGCAAUCAGCUGUUCCUCAGACCACUGUGGAUCCAACAGAGGAUUGAGCAUCA
B10: chr1:163112212:163112213:-_ENSG00000143248_ENST00000313961|hu_hu|hu_hu_hu_mus_False|58_58 (ssRNA)
RNA: GGGAGUUCUACAGUCCGACGAUCUUUUAUUAUCAGUAAGAGUGAGUUACAUACUAGGCAAAGUAUUGGAUACAAUAUUCUAAAGAUAAACACUAUUGGUCCAGAAUUUAAAACUUUAUGAGCGAAGUGCUGGCACAGGACUUACAACAGAGGAUUGAGCAUCA
B11: chr7:90019092:90019093:+_ENSMUSG00000057706_ENSMUST00000082237|mus_hu|FALSE|FALSE (ssRNA)
RNA: GGGAGUUCUACAGUCCGACGAUCAACACACUAAACAGUCCACACAUCCCAUAGCACUACUAUCAUCUUCAUCAUAAUUAUUACUGUUCAUUUUUUCCUACUUUAAGAAAAUGGAAAACUUGUGGGGUUUUCUUCUUUUGGAAGCAACAGAGGAUUGAGCAUCA
B12: chr2:9728443:9728444:-_ENSG00000134308_ENST00000238081|hu_hu|FALSE|FALSE (ssRNA)
RNA: GGGAGUUCUACAGUCCGACGAUCUUGCAUCUCUUUCUUGCUUAUAUCAAAUGCCUCUUGGUAAGCUCCUUGGGAAUUAUCUAUCGUUUGUUUUCGAUCAUCACCACACGCAACUUCAGCAAGGUACCGGAAGUAAUCACCCUUCAACAGAGGAUUGAGCAUCA
B13: chr9:104153060:104153061:-_ENSG00000136897_ENST00000374865|hu_hu|FALSE|FALSE (ssRNA)
RNA: GGGAGUUCUACAGUCCGACGAUCGUAAGAUUCCAAACGACUCUGGAGAUCUUCAGGUGGUGUGUAUGCUCGGCUUCGUAAAGGUGGACACACUAGGAUAGGUUCCUUUUUCUCUUCUACUGUCUCAACAACCACUGGCUCUUUCAACAGAGGAUUGAGCAUCA
B14: chr5:67718940:67718941:+_ENSMUSG00000029221_ENSMUST00000113676|mus_mus|FALSE|FALSE (ssRNA)
RNA: GGGAGUUCUACAGUCCGACGAUCAGUAAAGGACUCGGUGUCAUCGUGGGGACUUCGCCGCCUGAUUUUUCGAAGUUGUUCUAAAUCACUGGACUUAAGGCAGAACUCGUUUAUUGCUCUCACUCCAGUGAUGAAAUUAUUCUUCAACAGAGGAUUGAGCAUCA
B15: chr2:61719535:61719536:-_ENSG00000082898_ENST00000401558|hu_mus|motif|central (ssRNA)
RNA: GGGAGUUCUACAGUCCGACGAUCGUUUACUACUGUCUUCAAAAAUUUCCAGUGUGCUCUCAAAAAUCUUGGGUAUUGACCGGCGGUGUACAUGAUAUUCGAUGCAAUAAUAGCUUUAUUAUCUUUGCCUCUUUUCUGCUCACACAACAGAGGAUUGAGCAUCA
B16: chr1:46159212:46159213:+_ENSG00000159596_ENST00000372025|hu_mus|hu_hu_hu_mus_True|38_38 (ssRNA)
RNA: GGGAGUUCUACAGUCCGACGAUCUCUGAUCCCUCCCAAGAAAGCUAGGAAACCGGCUCCAUAAGCCAUCUGAGUGAAAGCUAGGACGGGGAUAUAAGUUUUUGUCAUUACCAUGAGAAGUGGGGGAGCAGUAAAGGGGAUUAACAACAGAGGAUUGAGCAUCA
B17: 73151538_73161298_714_CDS_ENSMUSG00000022607_ENSMUST00000110036|mouse|control|control (ssRNA)
RNA: GGGAGUUCUACAGUCCGACGAUCGUCACUCUUCACCUGUUGAUAGAAGAAAUUCAAUGUUGGCUUAUCUUCAGUAAACUGGUUUAGAAAUCCUUUUGGCAAGUAACGAAUUCUCAACUCAUAUUUCCACUCCUCUGGUGGGUGCAACAGAGGAUUGAGCAUCA
B18: chr10:69676056:69676057:+_ENSG00000096717_ENST00000212015|hu_hu|motif|central (ssRNA)
RNA: GGGAGUUCUACAGUCCGACGAUCAUGGAAAAUGUAACGAUUUGGUGGCAAAAACAGAUACUGAUUACCAUCAAGCCGCCGGCGGAUCUGCUCCUUUGCCACUCUAUUAGGCCAGCAUUUUCUCACUGUUCCAGCCACUGAAGUCAACAGAGGAUUGAGCAUCA
B19: 98363965_98364085_502_CDS_ENSMUSG00000022992_ENSMUST00000116400|mouse|control|control (ssRNA)
RNA: GGGAGUUCUACAGUCCGACGAUCCUUUGGGGCAGCACUGGGGCACCUUUUUCCAUUCUUCGUCGAGACGUAACUACAUUGUUUGAAGGGUGCAUUCUUGUCUUCAAGAAUGUGCUUAAUGCAGAACUCCUGCCCCUCCAGCCGCAACAGAGGAUUGAGCAUCA
B20: chr1:58468927:58468928:-_ENSMUSG00000026034_ENSMUST00000148330|mus_mus|mus_mus_mus_hu_False|48_48 (ssRNA)
RNA: GGGAGUUCUACAGUCCGACGAUCAAUUACUGAAAAAGAUGUUCAUUACCUUAGCUAUGUACUUAAUGAACCAAAUUACCCAAACAACAUAAAAUGUGCAAUAUAAAAAUGUUAAGAAUUUACAAAGCUGUACAAAAUAACUUACAACAGAGGAUUGAGCAUCA
B21: chr7:134027783:134027784:-_ENSMUSG00000059981_ENSMUST00000071268|mus_mus|FALSE|FALSE (ssRNA)
RNA: GGGAGUUCUACAGUCCGACGAUCGGAUGAACCCCGGAUAUUGGUGCACACAGGGUCCUGAAUCCCAGGUAUUUUAAAUUCUAUAAAACAGAGACCCAGGUUUGUAAAGGUUGGGACUUUGGGUCCCAGAUAUCUGAUAUACGACAACAGAGGAUUGAGCAUCA
B22: chr7:56126341:56126342:+_ENSG00000146731_ENST00000540286|hu_mus|hu_hu_hu_mus_True|38_38 (ssRNA)
RNA: GGGAGUUCUACAGUCCGACGAUCCAUGUUUCUCCUCUUGGCUCUGCGCAGAGCUACGAUCCCUUCUUUCGCAAGGGCAUCUAAGGAAAAGGGGUCAAUUCCCUUUUGAUUAAUAACGACAAAUCCUUUAUCUGAGUCACCACACAACAGAGGAUUGAGCAUCA

Target: T1, UNK ZnF1-3
Test: nsRBNS (natural sequence RNA bind-n-seq); RBNS binding buffer (assumed for nsRBNS): 25 mM Tris pH 7.5, 150 mM KCl, 3 mM MgCl2, 0.01% Triton X-100, 500 ug/ml BSA, 20 U/ml SUPERase-In, 4 C; UNK is unkempt and MSI1 is Musashi-1; names of the RNAs are library labels; protein concentration not given here; high values mean tight binding

Compared with B1, B2 is higher in binding signal: 0.59 enrichment R for the first, 0.714 enrichment R for the second.

First: B3
Second: B4
The binding signal of the first is higher: 1.1 enrichment R for the first, 0.64 enrichment R for the second.

Going from B5 to B6, the binding signal rises from 1.03 enrichment R to 1.43 enrichment R.

Going from B7 to B8, the binding signal rises from 0.713 enrichment R to 0.762 enrichment R.

First: B9
Second: B10
The binding signal of the first is lower: 1.12 enrichment R for the first, 1.35 enrichment R for the second.

Compared with B11, B12 is lower in binding signal: 1.36 enrichment R for the first, 0.913 enrichment R for the second.

Compared with B13, B14 is lower in binding signal: 0.604 enrichment R for the first, 0.528 enrichment R for the second.

Compared with B15, B16 is higher in binding signal: 0.801 enrichment R for the first, 1.46 enrichment R for the second.

Compared with B17, B18 is higher in binding signal: 0.737 enrichment R for the first, 0.835 enrichment R for the second.

Going from B19 to B20, the binding signal rises from 0.667 enrichment R to 0.98 enrichment R.

Going from B21 to B22, the binding signal falls from 0.957 enrichment R to 0.873 enrichment R.
